# Over roughly 33,000 sequences, “E-score (-0.5 to 0.5)” has its median near -0.01; the highest 2% begin near 0.26. The list shows a part of the results.
# Target: Ste12 (UniProt P13574)
# Test: PBM E-score (8-mer binding enrichment) (E-score (-0.5 to 0.5)); higher = stronger / more preferred TF binding; most listed sequences are background and not binding sites
# Details: protein concentration: 200 nM; construct: GST-DNA-binding domain
# Procedure, shortened: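 Yeast transcription factors, full-length or as DNA-binding domains, were expressed with a GST tag using PURExpress in vitro transcription/translation. At about 100-200 nM they were applied to universal all-10-mer Agilent arrays, double-stranded by primer extension on fresh or once-stripped slides. Fluorescent anti-GST detected bound protein, and masliner normalised the scans. E-scores for ungapped eight-base words, pooled with reverse complements, came from the Universal PBM Analysis Suite.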
row,Sequence,PBM E-score
1,GTTAAGGA,0.0282
2,GCACGCGC,0.0115
3,ACGAGATC,-0.236
4,ACGCTCCG,0.0584
5,GATCTTAA,0.0856
6,AGGCTTCG,-0.158
7,AGCACTCA,0.00842
8,GACATTTA,-0.0124
9,CATCATCA,-0.0201
10,AAGGGCGG,0.101
11,CGTACACG,-0.148
12,ACCGTAGA,-0.132
13,AACCACCG,-0.0733
14,ACGCGGAA,0.0969
15,CTATCGAA,0.153
16,GTACTTCA,0.103
17,CAGCTGCG,-0.0692
18,CATGCAAA,-0.0225
19,CATCTCAG,-0.032
20,ACGACACC,-0.0371
21,CATAACAC,0.0915
22,CACCATAG,-0.041

row,Sequence,PBM E-score
1,CCAACCTA,-0.0315
2,AGATGCGG,0.0976
3,GGCCAAAA,0.0718
4,GACTTGGA,-0.0904
5,ATTGTCCC,0.0652
6,GATAACCC,-0.0707
7,CGACGAAA,0.0412
8,CGGTCTGC,-0.153
9,AATTCCAT,0.095
10,CAAATGGC,-0.0975
11,ACGATGAA,0.274
12,ACCCGGTG,-0.0523
13,CCGGTATC,-0.143
14,AACGCAGG,0.0477
15,CGTTGGAC,-0.203
16,AAAGAAGA,0.104
17,ACGGTGGC,-0.0529
18,AGCAAGTA,0.00728
19,ACCTGATG,0.0596
20,ATAGTATC,0.0741
21,AATGGACC,0.0187
22,ACAACCCG,0.059

row,Sequence,PBM E-score
1,GGCCGCTA,-0.127
2,AAAACGCA,0.163
3,ACATTTGC,0.0597
4,ACAGAATG,0.0528
5,AAAGCCAG,-0.0237
6,AATTCGGG,-0.00907
7,CTGAGGAA,-0.0186
8,CTGCTATC,0.0704
9,GGTCTTGA,-0.0759
10,AGGGTTAA,0.0498
11,CATCCTAA,-0.104
12,ACACTACT,0.0391
13,CGAATCCC,0.0378
14,AAATTCAA,0.153
15,TGACTTAA,-0.0893
16,ACACAAGC,0.0819
17,CTAGGCCA,-0.187
18,TCTTGAAA,0.308
19,CTTTGTAC,-0.0561
20,ATACCCAT,0.0168
21,AACACGTG,0.12
22,ACTGCCAG,-0.0624

row,Sequence,PBM E-score
1,GGTCTTAA,-0.0409
2,CCGCATGA,0.0154
3,CCCCGTCC,0.0603
4,AAGCCGCG,0.0912
5,CAGCCAGG,-0.179
6,ACGCCATA,-0.0497
7,CCTCTAGC,-0.177
8,CATGACAA,0.0209
9,GAGAATAC,0.0523
10,AAGGCGCA,-0.156
11,GTAAACGA,-0.0567
12,AACCGGCC,-0.208
13,GTGACTGA,-0.0477
14,GCGAGAAA,0.107
15,TAACGTCA,0.0318
16,CTGGGGCA,-0.234
17,AGAACCCC,-0.027
18,AGAGAAAC,0.088
19,CCAATGCA,-0.135
20,CTCGTATA,0.0544
21,TGTATGAA,0.228
22,AACTTCAT,0.0947

row,Sequence,PBM E-score
1,GGGATTCA,0.00978
2,CCTGTTCG,-0.082
3,CCGAAAGG,-0.00094
4,CACGACGG,-0.0211
5,CGATAGCC,-0.0372
6,AGGTGAAT,0.0887
7,ACATCCAG,0.0306
8,CCACCTCG,-0.0855
9,ACTGCCTA,-0.0876
10,AAAAGTAA,0.287
11,GAGTAACC,-0.00741
12,GGAAGGTA,0.0593
13,GAGGGGCA,0.158
14,GAAAGATC,-0.0296
15,GGGGGGAA,-0.089
16,CTGTATGC,-0.0803
17,CAATAGGC,-0.0427
18,CAATGAGG,-0.306
19,AGTGCTAT,-0.144
20,GCAGCGAC,0.0544
21,GGTTGCCA,0.0827
22,GGACGGAA,-0.121
